87 molecules from paper PMC4336329 (PLoS ONE, 2015) can be followed below.

The structures appear in SMILES notation. Hit rate of the full screen: of about 310,000 compounds, about 14,000 (4.5%) showed an effect of 50% or more. Effects have a minus sign here. This is one part of the list.
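Note: peak tail current of the secondary pulse compared with the same well before compound.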

Sequence of human ether-à-go-go-related gene (hERG) potassium channel (Q12809 whole entry, looked up): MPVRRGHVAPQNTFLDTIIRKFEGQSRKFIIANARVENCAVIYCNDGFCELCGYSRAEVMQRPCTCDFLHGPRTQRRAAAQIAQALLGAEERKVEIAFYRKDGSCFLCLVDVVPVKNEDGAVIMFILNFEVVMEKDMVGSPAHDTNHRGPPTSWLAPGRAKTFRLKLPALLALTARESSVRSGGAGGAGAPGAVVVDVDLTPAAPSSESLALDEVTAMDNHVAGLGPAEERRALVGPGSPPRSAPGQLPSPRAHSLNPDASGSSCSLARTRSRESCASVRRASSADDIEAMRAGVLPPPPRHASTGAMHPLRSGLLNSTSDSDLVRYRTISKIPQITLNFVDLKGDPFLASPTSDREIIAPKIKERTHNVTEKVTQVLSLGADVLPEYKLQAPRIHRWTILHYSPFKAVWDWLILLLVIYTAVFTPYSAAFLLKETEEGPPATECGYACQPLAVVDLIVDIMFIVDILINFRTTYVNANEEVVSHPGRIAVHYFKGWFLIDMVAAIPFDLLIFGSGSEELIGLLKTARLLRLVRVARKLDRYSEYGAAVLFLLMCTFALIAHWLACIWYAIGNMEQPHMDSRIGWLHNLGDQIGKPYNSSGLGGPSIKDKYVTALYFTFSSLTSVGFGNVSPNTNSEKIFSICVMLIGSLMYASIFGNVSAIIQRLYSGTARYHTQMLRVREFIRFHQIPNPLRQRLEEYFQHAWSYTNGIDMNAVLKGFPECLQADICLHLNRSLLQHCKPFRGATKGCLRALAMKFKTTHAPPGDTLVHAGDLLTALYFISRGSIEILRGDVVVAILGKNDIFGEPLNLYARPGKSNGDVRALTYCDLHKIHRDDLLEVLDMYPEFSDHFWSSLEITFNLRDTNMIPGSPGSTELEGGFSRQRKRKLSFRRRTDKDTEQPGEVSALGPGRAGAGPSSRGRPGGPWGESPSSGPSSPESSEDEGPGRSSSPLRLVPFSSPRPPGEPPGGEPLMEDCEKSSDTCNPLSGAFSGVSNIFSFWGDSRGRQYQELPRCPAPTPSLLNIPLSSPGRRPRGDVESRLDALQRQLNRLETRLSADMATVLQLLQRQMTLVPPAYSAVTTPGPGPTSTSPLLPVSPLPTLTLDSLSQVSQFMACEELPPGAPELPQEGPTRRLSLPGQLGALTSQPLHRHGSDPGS

This assay concerns the target human ether-à-go-go-related gene (hERG) potassium channel (human, UniProt Q12809). Briefly: primary screen, population patch clamp on CHO cells stably expressing hERG.
Take `COc1ccc(-c2cc(C(=O)Nc3c(F)cc(F)cc3Br)no2)cc1`: the “hERG current change (%, negative = inhibition) at 10uM” value stood at 16.3%. In the case of `O=C(COc1ccc2ccccc2c1)Nc1ccc(Br)cc1C(=O)O`, the “hERG current change (%, negative = inhibition) at 10uM” value turned out to be 8.35%. Consider `COc1ccc(S(=O)(=O)CC2(O)CCN(C(=O)C(C)(C)C)CC2)cc1`, for which the “hERG current change (%, negative = inhibition) at 10uM” value is on record as 16%.

Regarding `COC(=O)c1ccc2c(=O)n(CC3CCCO3)c(SCC(=O)Nc3ccccc3OC)nc2c1` (stereo not drawn), the “hERG current change (%, negative = inhibition) at 10uM” value is on record as -4.41%. On to `CN(CC(=O)Nc1cccc(F)c1)C(=O)CNS(=O)(=O)c1ccc(N(C)C)c([N+](=O)[O-])c1`, for which the “hERG current change (%, negative = inhibition) at 10uM” value was -3.07%. For the molecule `CC(C)Cc1nnc(NC(=O)CSc2nc(N)cc(=O)[nH]2)s1`, the “hERG current change (%, negative = inhibition) at 10uM” value is on record as 4.59%. Under `COc1cc2c(c(OC)c1OC)-c1c(cc(OC)c(OC)c1OC)C[C@](C)(O)[C@@H](C)C2` stands -73.7%; under `CCOC(=O)C1CCN(C(=O)CN(C)S(=O)(=O)c2cc(C)ccc2OC)CC1`, -14%; under `COC(=O)c1cc(NC(=O)Cc2ccc(OC)cc2)cc(C(=O)OC)c1`, 12.8%. For `CN(C)CCCNC1=CC(=O)CC(c2ccccc2)C1` (stereo not drawn), the “hERG current change (%, negative = inhibition) at 10uM” value came out at 3.58%. Regarding `COc1cccc(CC(=O)N2CCCC(CO)(Cc3ccc(F)cc3F)C2)c1` (stereo not drawn), the “hERG current change (%, negative = inhibition) at 10uM” value is -0.432%. As to `C=CCc1cc(C)ccc1OCCOCCC(C(=O)OCC)C(=O)OCC`, the “hERG current change (%, negative = inhibition) at 10uM” value is on record as 5.79%.

Take `O=C(COc1ccc(Cl)cc1)OCC(=O)c1ccc[nH]1`: the “hERG current change (%, negative = inhibition) at 10uM” value is listed as -0.892%. Under `O=C(C1=C[C@@H](c2ccc(C(F)(F)F)cc2)C[C@@H](OCCCCO)O1)N1CCOCC1` stands -3.65%. On to `Cc1c(NC(=O)CN2C(=O)NC(CCc3ccccc3)C2=O)c(=O)n(-c2ccccc2)n1C` (stereo not drawn), for which the “hERG current change (%, negative = inhibition) at 10uM” value stood at 5.03%.

As to `CCN(CC)CCNC(=O)C(=O)Nc1cc2c3c(c1)CCN3C(=O)CC2`, the “hERG current change (%, negative = inhibition) at 10uM” value came out at 4.8%. Under `NC(=O)C1CCN(CCC(=O)Nc2ccc(Br)cc2)CC1` stands -26.8%; under `CCN(CC)CCNC(=S)NC(=O)c1cn(-c2ccccc2)nc1-c1ccc(OC)cc1`, -27.3%; under `COc1cc(OC)cc(-c2cc(N)n(S(=O)(=O)Cc3ccccc3)n2)c1`, -0.0642%. Under `Cc1ccc(C)c(NC(=O)CN(C)C(=O)c2cccc(S(=O)(=O)N(C)C)c2)c1` stands 12.8%; under `Cc1c(C(=O)N2CCN(CCc3ccccn3)CC2)oc2ccc(F)cc12`, -72.1%; under `COc1ccc(/C=C/c2c(-c3ccc(OC)cc3)oc3cccnc23)cc1`, 22.7%. Turning to `NS(=O)(=O)c1ccc(S(=O)(=O)N2CCN(C3CCCC3)CC2)cc1`, the “hERG current change (%, negative = inhibition) at 10uM” value is 15.1%.

Take `CCCCn1c(N)c(N(CCOC)C(=O)c2cccc(S(=O)(=O)N3CCCCCC3)c2)c(=O)[nH]c1=O`: the “hERG current change (%, negative = inhibition) at 10uM” value is given as -2.57%.

Turning to `C/C(=N\Nc1ccc(S(N)(=O)=O)cc1[N+](=O)[O-])c1ccccc1O`, the “hERG current change (%, negative = inhibition) at 10uM” value is listed as 8.64%.

In the case of `O=C(COC(=O)c1ccc2ncsc2c1)Nc1ccc(Cl)cc1`, the “hERG current change (%, negative = inhibition) at 10uM” value is on record as -1.73%. Turning to `CN1CCN(C(=O)c2ccc3c(c2)S(=O)(=O)c2ccccc2C3=O)CC1`, the “hERG current change (%, negative = inhibition) at 10uM” value is -35.9%. For the molecule `Cc1ccc(O)c(CNc2ccc(S(=O)(=O)Nc3nccs3)cc2)c1`, the “hERG current change (%, negative = inhibition) at 10uM” value is listed as 11.9%. Under `Cc1c(C#N)c2ccccc2n1CC(=O)NCCc1c[nH]c2ccccc12` stands -2.5%. As to `CC(=O)N(C)c1ccc(NC(=O)Cc2cccs2)cc1`, the “hERG current change (%, negative = inhibition) at 10uM” value is recorded as 14.1%. Consider `Cc1ccc(OCCC(=O)OCC(=O)C(C)(C)C)cc1`, for which the “hERG current change (%, negative = inhibition) at 10uM” value was -3.71%. `O=[N+]([O-])c1cc([N+](=O)[O-])c2cccnc2c1O`: the “hERG current change (%, negative = inhibition) at 10uM” value amounted to 18.2%.

With `CCC(C)NC(=O)CCn1c(-c2ccccc2)cc(C(C)=O)c1C` (stereo not drawn), the “hERG current change (%, negative = inhibition) at 10uM” value is given as 21.5%. For `Cc1ccc(CNc2cnccn2)cc1`, the “hERG current change (%, negative = inhibition) at 10uM” value was -19%. Consider `Cc1ccc(OCCOCCn2cnc3ccccc3c2=O)c([N+](=O)[O-])c1.O=C(O)C(=O)O`, for which the “hERG current change (%, negative = inhibition) at 10uM” value is reported as -42.9%. Under `Cn1cc(CN2CCC[C@H]2CO)c(-c2cccc(Cl)c2)n1` stands -15.1%; under `CN(C)S(=O)(=O)c1ccc(C(=O)NCC(=O)N/N=C/c2ccco2)cc1`, 13.2%; under `CCCn1c(C)cc(C(=O)COc2ccc(C)nc2[N+](=O)[O-])c1C`, -17%. For `CN1CCN(S(=O)(=O)c2cnc(Cl)c(Br)c2)CC1`, the “hERG current change (%, negative = inhibition) at 10uM” value was 10.5%.

In the case of `Cc1nn(Cc2ccccc2)c2sc(C(=O)NCc3cccnc3)cc12`, the “hERG current change (%, negative = inhibition) at 10uM” value is on record as -46.9%. Take `CCCCC(=O)NC1(C(F)(F)F)NC(=O)N(Cc2ccccc2)C1=O` (stereo not drawn): the “hERG current change (%, negative = inhibition) at 10uM” value is -5.37%.

Consider `CCOc1cccc(C(=O)Nc2nccs2)c1`, for which the “hERG current change (%, negative = inhibition) at 10uM” value is -3.11%.

`Cc1cc(S(=O)(=O)Nc2ccc(C(=O)NCCCN3CCOCC3)cc2)ccc1F`: the “hERG current change (%, negative = inhibition) at 10uM” value is listed as 3.07%. For the molecule `C/C(=N\NC(=S)Nc1ccccc1C)c1cc2ccccc2o1`, the “hERG current change (%, negative = inhibition) at 10uM” value turned out to be 5.17%. Under `O=C(c1ccc2ccccc2n1)N1CCN(c2ccccc2O)CC1` stands -0.197%; under `CN=C(Nc1ccc(Cl)cc1)c1cccc(C(F)(F)F)c1`, 9.84%. Under `Cc1ccc(S(=O)(=O)NNC(=O)c2ccc(O)cc2)cc1` stands 2.9%; under `CC(=O)c1c(Nc2ccc3c(c2)OCCO3)oc(C)cc1=O`, 6.91%; under `COC(=O)c1ccc(C)c(NC(=O)CCSc2ccc(Cl)cc2)c1`, -0.245%.

Regarding `O=C(CSc1nc2ccsc2c(=O)n1Cc1ccccc1)NCC1CCCO1` (stereo not drawn), the “hERG current change (%, negative = inhibition) at 10uM” value was -25.7%. Take `Cc1cc(C(=O)NCC(=O)OC(C)C(=O)N2CCOCC2)ccc1[N+](=O)[O-]` (stereo not drawn): the “hERG current change (%, negative = inhibition) at 10uM” value is -3.98%. Under `Cc1ccc(C)c2[nH]c(=O)c(C(c3nnnn3Cc3ccccc3)N3CCc4ccccc4C3)cc12` (stereo not drawn) stands -9.12%; under `CN1Cc2c(N3CCOCC3)nc(SCc3ccccc3)c(C#N)c2CC1(C)C`, -12.9%. `COc1ccc2ccccc2c1/C=N\NC(=O)c1cccnc1`: the “hERG current change (%, negative = inhibition) at 10uM” value is recorded as 3.06%. Turning to `CC(Sc1nnc(Cc2cccs2)n1C1CCCCC1)C(N)=O` (stereo not drawn), the “hERG current change (%, negative = inhibition) at 10uM” value is given as -9.06%. Take `COC(=O)C(Cc1cnc(Cl)s1)(C(=O)OC)c1ccc([N+](=O)[O-])cc1[N+](=O)[O-]`: the “hERG current change (%, negative = inhibition) at 10uM” value is -28.5%. As for `O=C(Nc1cccc(Cl)c1)c1csc(-c2ccccc2)n1`, the “hERG current change (%, negative = inhibition) at 10uM” value is given as 31.4%. Consider `CC(C)CC(=O)NC(=S)Nc1ccc(S(=O)(=O)Nc2nccs2)cc1`, for which the “hERG current change (%, negative = inhibition) at 10uM” value was 14.1%. In the case of `COc1ccccc1NC(=O)N1CCCC(C(=O)Nc2cccc(C)c2C)C1` (stereo not drawn), the “hERG current change (%, negative = inhibition) at 10uM” value amounted to 12.7%. On to `O=C(Cn1nc(C(=O)O)c2ccccc2c1=O)Nc1ccccc1C(F)(F)F`, for which the “hERG current change (%, negative = inhibition) at 10uM” value is listed as -21.6%.

On to `CN(C)C(=O)Oc1ccc(-c2nnco2)cc1`, for which the “hERG current change (%, negative = inhibition) at 10uM” value was found to be 7.11%. `CC(C)CNC(=O)C1c2ccccc2Oc2ccccc21`: the “hERG current change (%, negative = inhibition) at 10uM” value turned out to be 15.4%. With `N#C/C(=C(/O)COC(=O)c1cccnc1Cl)c1nc2ccccc2[nH]1`, the “hERG current change (%, negative = inhibition) at 10uM” value turned out to be 25.6%. In the case of `Cc1cc(S(=O)(=O)NCC(c2ccc(F)cc2)N2CCN(C)CC2)ccc1F` (stereo not drawn), the “hERG current change (%, negative = inhibition) at 10uM” value is -68.4%. `CCOC(=O)C1CCN(S(=O)(=O)Cc2ccccc2)C1=O` (stereo not drawn): the “hERG current change (%, negative = inhibition) at 10uM” value was determined as 4.99%.

Take `NS(=O)(=O)c1ccc(NC(=S)NCC2CCCO2)cc1` (stereo not drawn): the “hERG current change (%, negative = inhibition) at 10uM” value came out at 8.74%.

`COc1ccc(OCC(=O)Nc2cccc(C(C)=O)c2)cc1`: the “hERG current change (%, negative = inhibition) at 10uM” value was -7.29%. Consider `CCCc1nnc(SCC(=O)Nc2ccc3c(c2)OCCO3)n1CCOC`, for which the “hERG current change (%, negative = inhibition) at 10uM” value is 30.9%. Under `Cc1cccc(NCc2ccccc2)c1` stands 5.29%; under `COC(=O)CCc1c(C)[nH]c(C(=O)OCc2ccccc2)c1C`, -13.3%; under `O=C1C2C3c4ccccc4C(c4ccccc43)C2C(=O)N1CN1CCOCC1` (stereo not drawn), -1.38%. Take `Cc1ccc(/C=C/C(=O)Nc2ccc([N+](=O)[O-])c(NC(=O)/C=C/c3ccc(C)o3)c2)o1`: the “hERG current change (%, negative = inhibition) at 10uM” value worked out at 17.4%.

For the molecule `Cc1[nH]c2ccccc2c1/C=N/NC(=S)NCc1ccccc1`, the “hERG current change (%, negative = inhibition) at 10uM” value came to 22.1%. Regarding `Cc1ccc(C(=O)NNc2ncnc3ccccc23)cc1`, the “hERG current change (%, negative = inhibition) at 10uM” value was 9.43%. Under `CCC(=O)O[C@]1(C(=O)CCl)[C@@H](C)C[C@H]2[C@@H]3CCC4=CC(=O)C=C[C@]4(C)[C@@]3(F)[C@@H](O)C[C@@]21C` stands 12.2%; under `COc1ccccc1NC(=O)CCS(=O)(=O)c1ccccc1`, 12.7%. Regarding `COc1ccccc1Nc1nnc(SCC(=O)NC2CCCC2)s1`, the “hERG current change (%, negative = inhibition) at 10uM” value is recorded as -0.29%. Consider `COc1ccc(N(C(=O)c2cnccn2)C(C(=O)NC2CCCCC2)c2ccc(O)cc2)cc1` (stereo not drawn), for which the “hERG current change (%, negative = inhibition) at 10uM” value stood at 7.41%.

As to `CCC(=O)Oc1ccc(C(=O)Nc2ccc([N+](=O)[O-])cc2)cc1`, the “hERG current change (%, negative = inhibition) at 10uM” value came to 13%.

In the case of `COc1ccc(CNC(=O)C(=O)c2cn(CC(=O)N3CCCC3)c3ccccc23)cc1`, the “hERG current change (%, negative = inhibition) at 10uM” value is given as 3.02%. Turning to `O=C(c1sccc1-c1ccccc1)N1CCN(S(=O)(=O)c2ccccc2)CC1`, the “hERG current change (%, negative = inhibition) at 10uM” value was -6.73%. Under `Cc1cccnc1NC(=O)c1ccc(OCc2c(C)noc2C)cc1` stands -6.78%.

For the molecule `Cc1ccc(-n2c(Cn3cnc4ccccc43)nnc2SCC(=O)O)cc1`, the “hERG current change (%, negative = inhibition) at 10uM” value was -1.94%. With `O=C(N=C1SC2CS(=O)(=O)CC2N1Cc1ccc(F)cc1)C1CCCO1` (stereo not drawn), the “hERG current change (%, negative = inhibition) at 10uM” value is -5.58%. For `COc1ccc(Cn2c(=O)sc3ccccc32)cc1OC`, the “hERG current change (%, negative = inhibition) at 10uM” value is given as -20.1%. For `COc1ccc(N2CCN(C(=O)Cc3ccc(C)cc3)CC2)cc1`, the “hERG current change (%, negative = inhibition) at 10uM” value was -6.07%.

On to `O=C(CC12CC3CC(CC(Br)(C3)C1)C2)NC1CCCC1`, for which the “hERG current change (%, negative = inhibition) at 10uM” value is reported as -16.5%.
